# Test results reported in the supplement of paper PMC11417369.
# ± gives the standard deviation of the averaged measurements. The list shows a part of the results.
# Tested on: PfAP2-G AP2 domain (GST-tagged)
# Experiment: gcPBM binding intensity (ln(normalized median fluorescence intensity)); higher = stronger DNA binding
# Procedure, shortened: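 The highest Masliner-normalised natural-log median intensity across replicate spots of either probe orientation is reported as binding intensity. GST-tagged P. falciparum DNA-binding domains expressed in E. coli were applied for 1 h to an Agilent 4 × 180k array of primer-extended double-stranded 36-bp intergenic genomic probes plus negative controls, and bound protein was detected with Alexa488 anti-GST antibody and scanned at 488 nm.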
row,Sequence,gcPBM binding intensity (ln)
1,TTCTTATATATATACACACACAAAATATCTACAATG [CACACA_site736],10.1 ± 0.16
2,ATATTATATTATATAACACACATTTTTCATAACACT [CACACA_site407],10 ± 0.028
3,ATAATTTAATACTAGTGTACAGAAAAAAAAAAAAAA [XGTACX_site6756],11.3 ± 1.1
4,TTAAATTAAAACAAATGTACAAAGTGCATATTTTTT [XGTACX_site8143],10.5 ± 0.46
5,ATTTTTTTTTCTTTCGCACACGTGAAAGAATTTCTA [CACACA_site2052],10.2 ± 0.22
6,TGAAGGTCAGTTCACAGTACCCAGTAACTCTACGGA [XGTACX_site2554],10.8 ± 0.46
7,TATATTTTTTTAAAAAGTACTTTGTATATATATATA [XGTACX_site1300],11.1 ± 0.83
8,TTGTTGTTATTTAAAACACACATCAATCATCTTAAC [CACACA_site1142],10 ± 0.27
9,ACATATATATATAAATATATATATATATAAATATAT [CACACA_negctrl_site895],9.425 ± 0.078
10,GTTGAACATAGATGCACACACATAAAATAAAAAAAA [CACACA_site5353],10.2 ± 0.4
11,TGTTTAAATTTTTTGTTTTTTTTTTTATAAAGCAAA [TGCATGCA_negctrl_site313],9.62 ± 0.099
12,TTACGCATACTAATTACACACAAATAGATGAATATA [CACACA_site1338],10 ± 0.13
13,ATAAAAAAATAAATTAGTACATATATATATATATAT [XGTACX_site6971],11.1 ± 0.83
14,AATTATTTTATGTGAGGTACACCACACATGAAGGGG [XGTACX_site8450],11.5 ± 0.98
15,TAAATATATTCAATCACACACATTCGTTTTTTTTTT [CACACA_site234],9.74 ± 0.17
16,AAAATTATAAATCTTGCACACAAAAAAAATAATAAA [CACACA_site8771],9.93 ± 0.014
17,TTTTCATTTATGTATATATTTATTTTGATTTAATGT [GTGCAC_negctrl_site607],9.69 ± 0.042
18,AAATATTCATAGTATACACACATTTATATATAATCA [CACACA_site771],10.05 ± 0.078
19,TGAAAGTTCAATAATTGTACATGTGGAAATTCATAC [XGTACX_site1378],10.9 ± 0.59
20,TATTGTTATGTCGTTATTAACTTTCTTTAATTAATT [CACACA_negctrl_site174],10.1 ± 0.14
21,TTTTTTAAATAATATTGTACAAAAAATGTATAAATA [XGTACX_site3010],11 ± 0.57
22,TTAGGTTTATACACTACACACATTATTCATAAAAAA [CACACA_site871],10.2 ± 0.26

row,Sequence,gcPBM binding intensity (ln)
1,AAAAAACACAGACACACACACATATACATACATACA [CACACA_site2666],10.4 ± 0.3
2,ATATTTCGTCTAAAAAGTACACAACAATAAAAAGTA [XGTACX_site6668],11.6 ± 0.92
3,AAGTGTATACAGAAGAGTACAAACAATTTTTTTCTT [XGTACX_site7387],11.3 ± 0.94
4,AACCAATTAGAAGGATCCAGAACTTATTTGTTTTTA [CACACA_negctrl_site1744],9.65 ± 0.2
5,TATTTATGTATATGCTGTACGCATTTGTGAAACATA [XGTACX_site4688],11.5 ± 1
6,TACAAGCCCAATTCAAGTACATATATATATATATAT [XGTACX_site5569],11 ± 0.88
7,AGTTTGTCAATCAACACACACCTATTTATTATATAT [CACACA_site6030],10.06 ± 0.071
8,TTATATATATATATATATATTTACATAATAATATGT [GTGCAC_negctrl_site388],9.79 ± 0.071
9,TAAAAAAAGGTTATTGGTACACACATATGTATATAT [XGTACX_site1029],11.1 ± 0.69
10,ATTCATTCATATGTTACACACACACGCCCACATAAA [CACACA_site7513],10.7 ± 0.5
11,AAAGATATGAAATATACACACTTCTTTGGTATTATT [CACACA_site6352],9.81 ± 0.18
12,TAAACTTTCCAGTGTTGTACATAATAATTATTATAT [XGTACX_site8896],11.1 ± 0.64
13,TTATATAATAAAAATTGTACATATTATATATATATT [XGTACX_site3427],11.1 ± 0.67
14,GTTGCGTATATATACACACATACATATATATATATA [CACACA_site1607],10.2 ± 0.27
15,TAATATTCAATTATACGTACACATATATATATATAT [XGTACX_site4245],11.8 ± 1.1
16,TATGAAAGAAATAGTACACACATAAACATTTGTAAA [CACACA_site2783],11.3 ± 1
17,TCATATATCATAACAGTGCAAAAAAAAAAAAATTAT,10 ± 0.3
18,GTTAGAGGGAAAAAGAGTACATATATGTGGATAATT [XGTACX_site2064],11.4 ± 0.75
19,AAAAAAAAAAAAGAAACACACATATATATATATATA [CACACA_site140],9.74 ± 0.24
20,GTTTGATTAAACTTGACACACATATATATAAATATA [CACACA_site1784],10.1 ± 0.17
21,AGAAAATATACAAAACGTACTTATATATTATATCTA [XGTACX_site3104],10.9 ± 0.69
22,AAATGTTATAACTCTTGAAAAAACAAAATATCATCA [CACACA_negctrl_site1156],9.77 ± 0.11

row,Sequence,gcPBM binding intensity (ln)
1,GAGTTTTTTTAATGATGTACATTTTAAAAATAAACG [XGTACX_site1036],11.1 ± 0.69
2,AAAATAATATATGTATGTACATATACACATATAGAA [XGTACX_site2218],11.1 ± 0.59
3,ACTTTACAATATATATGTACATATTAATAAACATAT [XGTACX_site3689],11.2 ± 0.71
4,AAATATTACGGAATAAAGAGCTTTTAAATAATTTTA [CACACA_negctrl_site1700],9.85 ± 0.17
5,TTTATTATACAAAATTGTACTTTATAATTTTATGTA [XGTACX_site5846],11 ± 0.79
6,TATTTTATACATATTTTACACACTAATATATACATA [CACACA_site7998],10.1 ± 0.18
7,AAATATAAACGGCACACACACAAAAAAAGAAAAAAA [CACACA_site649],10.2 ± 0.29
8,AGAAACCTTGTTAGTTAGCATATATATATATATATA [CACACA_negctrl_site372],10 ± 0.4
9,AATATGAAAAGATGAACAACAAAATGGAGAACAATA [GTGCAC_negctrl_site612],10.4 ± 0.34
10,TTTATAAAAATGAACACACACATATATATATATATA [CACACA_site3493],10.4 ± 0.79
11,AAATATTTATAGGTTTGTACTTATAAATAAAAAAAA [XGTACX_site7360],11.2 ± 0.88
12,TGAGGTAACTAAATATGTACGTAACGAAGATACATA [XGTACX_site8231],11.3 ± 0.62
13,ATACAAAATTTTTAAGAACACACAAAAATGTACTAT [CACACA_site8817],10.9 ± 0.61
14,AAGAAAAACTTTACGTGTACCAAACGTCATGCCAAC [XGTACX_site2575],11 ± 0.58
15,GCGTTATTAAATAATTCACACACATATATATATATA [CACACA_site8711],10.1 ± 0.28
16,GAACGCCATTCACATAAAGGGATACATAAATAAATA [XGTACX_negctrl_site330],10.1 ± 0.2
17,AATCACAAATAAAATAATATGACACAATATAAAATA [CACACA_negctrl_site537],9.945 ± 0.064
18,TACTTACACTGTTTTTGTACTTATTTCCCTTTTATT [XGTACX_site2158],11.2 ± 0.56
19,TTCTTGTATTTTCATAGTACATATAATGTCGTATTA [XGTACX_site600],10.9 ± 0.62
20,TAATTTCTTATGTATTGTACAAATAATGTATGATAT [XGTACX_site270],10.9 ± 0.56
21,AAAATAAAATTAGTTGCATGCAACTTAAACAGAAAT [TGCATGCA_site860],10.1 ± 0.14
22,TTGTGCTTGATATCACGGACAAGCTCATATTATATA [XGTACX_site4553],10.5 ± 0.42

row,Sequence,gcPBM binding intensity (ln)
1,ATAAATAAAGGACACACACACACACTAGAAAAAAAA [CACACA_site5450],11.2 ± 0.92
2,ATGAAAAAATTTATATGTACTTAAAATATAATCATA [XGTACX_site1228],11.3 ± 0.85
3,TATATTATTAAGATATGTACATAATTATAAATTTAA [XGTACX_site6848],11.1 ± 0.73
4,AAATGAAATACATCCTGTACATAGTAATGCTAACAA [XGTACX_site6600],10.7 ± 0.49
5,TTTTACAATGAAAGGTGTACAAGTAACAGTAGAACA [XGTACX_site1528],11.5 ± 0.76
6,TATAAATAAAAACACACACACACATATATATATATA [CACACA_site2268],10.1 ± 0.31
7,CTCTATAAATGCTGCACACACATTTAATTATTTAAG [CACACA_site2582],10.3 ± 0.35
8,TATAAATATAAATATACACACATATTTATATTTATA [CACACA_site7053],9.79 ± 0.22
9,TTTATATTTTATAAATTATTCATAAATATATTTGTA [TGCATGCA_negctrl_site175],9.61 ± 0.057
10,TTTTGAAACATATGATGTACACGAACATTTAAAAAA [XGTACX_site474],11.4 ± 0.8
11,AATAAATAGATAAGCACACAAGCATATAGACATATA [CACACA_site222],9.87 ± 0.085
12,AAATTCCACCAACACACACACATATAAATAAATAAA [CACACA_site1233],10 ± 0.29
13,AACAAATACAGACACACACACACACTAATAAAAAAA [CACACA_site8067],10.3 ± 0.38
14,TATTTTTATATTTTTGCACACATTCTTTACTCTTCA [CACACA_site2211],10.1
15,AAAAATTTTATATTCACACACATATATATATATATA [CACACA_site624],10.1 ± 0.35
16,GATATATATTAATATACACACACACCGATATATATA [CACACA_site8462],9.895 ± 0.007
17,TTGTATTATTATGTTGCACACATTTTATATAAAATA [CACACA_site3641],10.6 ± 0.51
18,TTTAGATAATTCATTACACACATGTATTTATATATA [CACACA_site5847],9.895 ± 0.049
19,TATATATATATATATATATATACAAATATATATTAT [CACACA_negctrl_site1729],10.1 ± 0.74
20,TGAGCATAAAAAGGGTGTACTTAAATATATTATATA [XGTACX_site7556],11.4 ± 0.88
21,GAATATAATCTGTATTGTACGAAAGTTGAACACTTG [XGTACX_site8895],10.8 ± 0.4
22,ATACCAACATATTATACACACCTTTATATTTTTTTT [CACACA_site5217],10.1 ± 0.15
